Measurements published in the supplement of paper PMC4466236.
In all, about 33,000 sequences were measured (“E-score (dimensionless, -0.5 to 0.5)”: median about -0.058, highest 2% from about 0.35 on). Some of the results follow.

These sequences were tested on MvaT (assay: PBM 8-mer E-score (mean of HK and ME arrays) (E-score (dimensionless, -0.5 to 0.5)); higher = stronger relative binding preference; most listed sequences are background and not binding sites).
Summary of the method: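 Full-length P. aeruginosa MvaT carrying an N-terminal glutathione S-transferase tag was tested by protein binding microarray following a previously described protocol. Two universal double-stranded 60-mer arrays, ME and HK, were used, each with a constant 25-mer primer region and a variable 35-mer region covering all 8-mers. The rank-based E-score is the mean of the two arrays, parsed with a custom script. Its range runs from -0.5 to 0.5 for each 8-mer.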

Sequence	PBM 8-mer E-score
AATCAAGG	0.102
CCCGGCAC	-0.177
CCCAAGTA	0.0351
CGCACACG	-0.149
AGAGTCTA	-0.044
GGGACCTA	-0.162
ATTTAAAA	0.377
GTCAAGAA	-0.0595
ATTGTGAC	0.0506
AAGTGGAA	0.0613
CAGCCTTA	-0.0468
CCCAAACC	-0.0902
CAATAATA	0.418
ACTGGGCC	-0.187
AACGGTGC	-0.161
CGAACCTC	-0.291
AGCTGAAG	-0.265
AGCACCGC	-0.183
AACCATAA	0.179
ACCGCACC	-0.223
TCATTCAA	0.0307
GGAGTGAA	-0.186
GTGTCGGA	-0.0252
TAGAAGCA	0.0326
AGGTGTTG	0.0261

Sequence	PBM 8-mer E-score
CTACGTAC	-0.0963
ACGGAACC	-0.0623
CTGGTGAA	0.0656
GACGGTTA	-0.0638
GAATAATA	0.446
ACAAGGAT	0.0633
ATCGGTCA	0.0621
CATTATCG	0.059
CCATCGCC	-0.134
CACGGTGC	-0.308
ACGACCCG	-0.265
ACGGGGGA	-0.18
CCTATACA	0.116
AAAGCGAC	-0.123
ATAAAAAG	0.348
GGGAATAA	0.206
CTCTGCAC	-0.152
AAAGCACT	0.00925
AATACGCC	0.106
CCGCTATC	-0.176
CGTCCCCA	-0.187
GGATTTGA	0.00759
GTCAGTCA	-0.12
CTGTATAC	0.215
GTCACCTA	-0.116

Sequence	PBM 8-mer E-score
ACTTAATC	0.187
ACGATTGC	-0.0272
GGCATCAC	-0.0694
GGTATCAC	-0.0393
AGGTTTTC	0.0141
AGCCTAGG	-0.195
ACCTTAAA	0.0626
AATTCGGT	0.134
GTACAGCA	-0.0583
ATACACAT	0.249
ACAGATAC	0.102
CTAGGTAC	-0.018
ACCGAGCT	-0.227
GGATGCCC	-0.254
CATATACA	0.275
ATATTCCA	0.329
ATGGTCAA	0.0074
CGCAGACA	-0.0204
CATAGTGA	-0.0399
CATCCCAG	-0.201
ATGACGGC	-0.0668
CGAGGAAA	-0.0976
CTATTTTC	0.0441
CTGCACCC	-0.178
GCGCTGAC	-0.126

Sequence	PBM 8-mer E-score
CTTTACAC	0.152
GCTGGCCC	-0.255
AGATATGC	0.0519
AAGCGTCC	-0.286
CAGCAGAG	-0.175
ACTTGTGC	0.0655
CAAAGAGA	0.0164
AAGGTACA	0.0388
AAAAGTCA	0.0201
CGCTAAAG	0.0562
AAATCCTC	-0.0318
ATAACTCC	0.236
TCGTTGAA	-0.118
ATTACTAG	0.268
GAAGGGGA	-0.249
ATTCCTGG	0.0037
GCGGCCAA	-0.0824
GGCTTGTA	-0.113
ACATGGGA	-0.0795
AGGCTCCA	-0.221
CATATTAG	0.305
CCCGTAAA	0.0209
CACAATTA	0.316
ACACGGAC	-0.108
GACCGGTC	-0.179

Sequence	PBM 8-mer E-score
GTATGTAA	0.196
GACCTTCC	-0.223
CCGCTCCA	-0.162
ACCCACCG	-0.122
GATAAGCC	-0.109
AGCGCACA	-0.135
GTAATCAC	0.12
CCCCGTTC	-0.279
AACCGTAC	-0.194
CACCGAAC	-0.204
ACGTTAAT	0.314
CACGCGTG	0.142
TACCCAGA	0.0205
CCGATCAG	-0.192
CGTAGTTA	0.0756
ATCGGGAA	-0.0197
GCCCCCAC	-0.198
CTCCTCTC	-0.248
ATCGAAGA	-0.0398
ACGAGGAC	-0.177
CGCACTAA	0.203
CGTATCGC	-0.0542
TACAGCCA	0.0553
TTCCACAA	0.14
CGTAATAA	0.398

Sequence	PBM 8-mer E-score
ATGCAGGC	-0.0163
CGATCCAC	-0.203
AAAGAGGC	-0.0241
TGGCGTAA	0.14
CCTCAAGG	-0.268
CAAGGCAG	-0.0831
AGGCGTGA	-0.147
GAGCCGAA	-0.173
ACTGACAC	0.095
AAGGGAAT	-0.00272
ATTCCACC	0.00652
AAGGATTG	-0.0828
ACATCGTG	-0.0855
AGCACCAA	-0.0599
AACCGATC	-0.0759
GTCACATA	0.0492
CATCTCAC	-0.0373
CTCTCTCA	-0.132
CACACACC	-0.0522
CTCCGGCC	-0.237
CCATCCGC	-0.0732
AAGTTTGT	0.249
AGACAGCC	-0.154
CCCTTTAA	0.0895
TATACGGA	0.123

Sequence	PBM 8-mer E-score
AAGTTCTC	-0.00886
AGTAAGCG	0.159
TATGCTAA	0.11
CCACCGTC	-0.258
CGGATCAC	-0.0365
GCCTTACA	-0.00875
ATGCCGTA	-0.0404
CGCATTGC	-0.2
CACGCCTG	-0.124
AAGTACCG	0.0895
CTGAACGA	-0.103
GTTCTCTA	-0.00159
CGCTTAGA	-0.0246
GAAGGTGC	-0.301
CATGCCAG	-0.173
ACGATGTC	-0.14
AGCGTTAT	0.161
CCAAGATA	0.15
AACTGGCC	-0.0267
AAACCCTT	-0.0425
GATATCTA	0.267
CATCGCCA	-0.178
